# Data reported in PubChem BioAssay AID686979 (National Center for Advancing Translational Sciences (NCATS), 2013).
# Where “and” joins values, the source holds several entries; their conditions need not be identical. Equal entries are not always repeated. Out of some 420,000 compounds screened, about 50,000 (12%) were called active. This list was built around the results that the source calls inconclusive (neither active nor inactive); the mix of calls is not that of the screen. Calls follow the shape of the dose curve; as a rule, active = well fitted inhibition curve with a large enough effect; inconclusive = small, poorly fitted or top-dose-only effect; inactive = flat fitted curve, though single readings scatter. Potencies beside an inconclusive call are fits to weak or partial responses and may not hold up.
# Assay: qHTS for Inhibitors of human tyrosyl-DNA phosphodiesterase 1 (TDP1): qHTS in cells in presence of CPT; also: nearly all actives have a fitted effect of over 55% in size
# Settings: chicken DT40 Tdp1-/-;hTDP1 cells + 20 nM CPT, ATP luminescence, 48 h; activity change, negative = growth inhibition: at 46.2 µM (top of the series) unless noted
# Method in brief: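 Chicken DT40 Tdp1-/- cells stably complemented with human TDP1 were seeded at 400 cells/well in medium containing 20 nM camptothecin, exposed to pin-transferred compounds, and grown at 37 °C for at least 48 hr. Viability was read as ATP luminescence.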
# % is scaled to controls: 0 for no effect and ±100 for the full control effect; potency is read from the fitted curve at half-maximal effect; tags tell the direction and shape of the fitted curve.
Structure (SMILES),"activity change, negative = growth inhibition",Potency
CCOC(=O)c1ccc(N2C(=O)C(CC(N)=O)N(CCc3ccc(OC)c(OC)c3)C2=S)cc1 (stereo not drawn),inactive: 17.3%,
Cc1ccc(C)c(CN2C(=O)C(=O)c3ccccc32)c1,,active: 1.16 µM
COc1ccc(OC(C)C(=O)NC2CCCCCC2)cc1 (stereo not drawn),inactive: -4.84%,
CCCC(=O)Nc1ccc(-c2csc(-c3cccnc3)n2)cc1,,"inconclusive: 10.3 µM [inhibitor, partial curve]"
Cc1cccc(-c2ccc(NC(=O)C3CCN(CC4CC4)CC3)cc2)c1,,"inconclusive: 18.4 µM [inhibitor, single point]"
O=C(c1cn(Cc2ccccc2)nc1-c1ccc(Cl)cc1)N1CCN(c2ccccn2)CC1,,"inconclusive: 29.1 µM [inhibitor, single point]"
c1ccc2c(c1)OCCOCCOCCOCCOCCOc1ccccc1OCCOCCOCCO2,,active: 8.2 µM
COc1ccc(OC)c(NC(=O)C2CCCN(S(=O)(=O)c3cccc4nsnc34)C2)c1 (stereo not drawn),,active: 16.4 µM
NCCC[C@@H](N)C(=O)O,inactive: -22%,
COc1ccc(S(=O)(=O)N2CCCCC2c2cc(C(=O)NCc3cccnc3)no2)cc1 (stereo not drawn),,active: 29.1 µM
CC1(c2ccc(Cl)c(Cl)c2)NC(=S)N2C1NC(=S)N2c1ccccc1 (stereo not drawn),inactive: -22.1%,
CNc1ccc(C=O)cc1Br,inactive: -5.77%,
c1csc(-c2ccc3ccccc3n2)c1,inactive: -8.42%,
CCCC(CCC(=O)Nc1ccn(-c2ccccc2)n1)C(=O)O (stereo not drawn),inactive: -2.65%,
Cc1ccc(S(=O)(=O)c2nc(-c3ccccc3)oc2NCc2cccnc2)cc1,,"inconclusive: 25.9 µM [inhibitor, single point]"
CCOc1ccccc1N1CCN(Cc2cc3c(cc2[N+](=O)[O-])OCO3)CC1,,"inconclusive: 25.9 µM [inhibitor, single point]"
Cc1ccc2onc(CNC(=O)N3CCN(c4cccc(C)c4C)CC3)c2c1,,"inconclusive: 23.1 µM [inhibitor, single point]"
O=C(NCCCN1CCOCC1)c1cccc(S(=O)(=O)N2CCN(c3ccccc3)CC2)c1,inactive: -7.21%,
COc1ccc(C)c2sc(N(CCN(C)C)C(=O)c3ccc4ccccc4c3)nc12,,active: 18.4 µM
COc1ccc(CCC(=O)N2CCc3c([nH]c4ccccc34)C2c2ccc(F)cc2)cc1 (stereo not drawn),,"inconclusive: 29.1 µM [inhibitor, single point]"
Cc1cc2nn(-c3ccccc3)nc2cc1NC(=O)c1cccc2c(Cl)cccc12,,"inconclusive: 2.91 µM [inhibitor, full curve, poor fit]"
COc1ccc(-n2ccnc2SCC(=O)Nc2ccc(F)cc2F)cc1,,"inconclusive: 29.1 µM [inhibitor, single point]"
CC1CCN(C(=O)C2CCCN(S(C)(=O)=O)C2)CC1 (stereo not drawn),inactive: 0.253%,
O=C(NCCc1ccccc1)c1ccc(CS(=O)(=O)c2ccc(Br)cc2)o1,,"inconclusive: 29.1 µM [inhibitor, single point]"
CC[n+]1c(/C=C/c2ccc(N(C)C)cc2)ccc2ccccc21,,active: 0.164 µM

Structure (SMILES),"activity change, negative = growth inhibition",Potency
COc1ccc(C2COc3cc(O)ccc3C2)c(OC)c1O (stereo not drawn),,active: 18.4 µM
CCOc1ccc2[nH]c(C)cc(=O)c2c1,inconclusive: -33.8% [inhibitor],
CN1CCN(c2nc(-c3ccc(Cl)cc3Cl)nc3ccccc23)CC1,,"inconclusive: 25.9 µM [inhibitor, single point]"
CC(=O)OC1CCC2(C)C(CCC3C4CC=C(C(C)=O)C4(C)OC(=O)CC32)C1 (stereo not drawn),,active: 2.31 µM
COc1cccc(C=NNc2ccc([N+](=O)[O-])cn2)c1OC,inactive: -3.3%,
Cc1ccc(C2(c3ccccc3)NC(=O)N(CC(=O)NC3CCCCC3)C2=O)cc1C (stereo not drawn),,"inconclusive: 23.1 µM [inhibitor, single point]"
Cc1cc(C2=NNC(=NC3CCCCC3)SC2)c(C)n1-c1c(C)n(C)n(-c2ccccc2)c1=O,inactive: -4.67%,
O=C(NCCc1ccc2c(c1)OCCO2)c1cc2ccccc2o1,,active: 16.4 µM
Cc1cc(S(=O)(=O)N(Cc2cccs2)Cc2ccccc2F)ccc1-n1cnnn1,,"inconclusive: 29.1 µM [inhibitor, single point]"
Cc1ccc(C(=O)NCC2CCCN2S(=O)(=O)c2ccc(C)cc2)cc1 (stereo not drawn),,"inconclusive: 18.4 µM [inhibitor, single point]"
Cc1ccc(NC(=S)N2CCSC2c2cccs2)cc1 (stereo not drawn),,"inconclusive: 0.184 µM [inhibitor, full curve, poor fit]"
CCc1cccc(NC(=O)Cc2cn(C)c3ccccc23)c1,,"inconclusive: 29.1 µM [inhibitor, single point]"
Cc1ccnc2nc(C(=O)Nc3ccc(S(=O)(=O)N4CCCC4)cc3)nn12,,"inconclusive: 20.6 µM [inhibitor, single point]"
CCOC(=O)c1c(C)nc2c3ccccc3ccn12,,"inconclusive: 20.6 µM [inhibitor, partial curve]"
CCCc1nc2ccccc2c(=O)n1NC(=O)c1c(O)c2ccccc2n(C)c1=O,,"inconclusive: 29.1 µM [inhibitor, single point]"
Cn1cncc1C#Cc1c(-c2ccc(S(C)(=O)=O)cc2)sc2ccccc12,,active: 13 µM
COCCn1c(C)cc(C(=O)COC(=O)c2[nH]c(C)c(C(C)=O)c2C)c1C,,"inconclusive: 23.1 µM [inhibitor, single point]"
Cc1nc2sc(C(N)=O)c(N)c2c2c1CCCC2,,"inconclusive: 3.26 µM [inhibitor, partial curve]"
CCOc1ccc(S(=O)(=O)N2CCCCC2)cc1NC(=O)C1=COCCO1,inactive: -29.7%,
COC(=O)[C@@]12C[C@@H](CC(=O)NCc3ccc(OC)c(OC)c3)C(=O)N(Cc3cccc4ccccc34)C1=CCC(C)(C)C2,,"inconclusive: 29.1 µM [inhibitor, single point]"
CSc1cccc(CN2CCCC(CO)(Cc3cccc(Cl)c3)C2)c1 (stereo not drawn),inactive: -4.85%,
COc1cccc(CC(=O)Nc2nccs2)c1,,"inconclusive: 29.1 µM [inhibitor, single point]"
CCN(CCCNC(=O)Cn1ncc2c([nH]c3ccc(C)cc32)c1=O)c1cccc(C)c1,,inactive
CC1(C(=O)NCCC(F)(F)F)Cc2c(-c3cccc(C(F)(F)F)c3)ccnc2O1 (stereo not drawn),,active: 4.61 µM
O=C(COC(=O)c1ccc(O)cc1O)NC(=O)Cc1ccccc1,,"inconclusive: 29.1 µM [inhibitor, single point]"

Structure (SMILES),"activity change, negative = growth inhibition",Potency
CCOc1cc(NC(=S)NCc2ccco2)c(OCC)cc1NC(=O)c1ccco1,inactive: -16.1%,
COc1cc(CN2CCN(c3cccc(C)c3C)CC2)cc(Br)c1O,,active: 13 µM
Oc1ccc(Cl)cc1C1=Nc2ccccc2N=C(c2ccco2)C1,,"inconclusive: 7.31 µM [inhibitor, partial curve]"
CCC(=O)N1c2ccccc2CC1C(=O)NCc1ccc(OC(C)C)cc1 (stereo not drawn),,"inconclusive: 29.1 µM [inhibitor, single point]"
Cc1ncc(CO)c(/C=N/NC(=O)c2ccccc2Br)c1O,,"inconclusive: 18.4 µM [inhibitor, single point]"
O=[N+]([O-])c1ccc(OCCCCCN2CCOCC2)cc1,,"inconclusive: 18.4 µM [inhibitor, partial curve]"
NCc1cccc(CNc2ccc([N+](=O)[O-])cc2C(N)=O)c1,,"inconclusive: 23.1 µM [inhibitor, partial curve, poor fit]"
Cc1cc(C(=O)NNc2ccccc2F)no1,inactive: -23.8%,
COC(=O)[C@@]1(Cc2ccc(F)cc2)[C@H]2c3cc(C(=O)N4CCCC4)n(Cc4ccccc4)c3C[C@H]2CN1C(=O)c1ccccc1,,"inconclusive: 29.1 µM [inhibitor, single point]"
COc1cc(-c2ccc(N3C(c4ccsc4)=Cc4ccc(F)cc4C3c3c[nH]c4ccc(C#N)cc34)cc2)cc(OC)c1OC (stereo not drawn),,"inconclusive: 18.4 µM [inhibitor, single point]"
CCn1c(C)c(C(=O)O)c2cc(OC)c3ccccc3c21,inactive: -20.4%,
Cc1nc(SCC(=O)OCc2ccccc2)c(C#N)c(-c2ccccc2)c1C(=O)Nc1ccccc1,,"inconclusive: 25.9 µM [inhibitor, partial curve]"
CC(OC(=O)c1snc(C(=O)NC2CCCCC2)c1N)C(=O)NC(C)(C)C (stereo not drawn),,active: 14.1 µM
CC1(C)Cc2c(cnn2-c2ccccc2)C(=O)/C1=N\NC(=O)c1ccccc1N,inconclusive: -32% [inhibitor],
CCN(CC)S(=O)(=O)c1ccc2nc(CCl)[nH]c2c1,,active: 25.9 µM
Cc1cccc(NS(=O)(=O)c2ccc(C)c(C(=O)NCc3ccccn3)c2)c1,inactive: -23%,
COc1ccccc1N1CCN(CCN2C(=O)CC(=C3c4ccccc4-c4ccccc43)C2=O)CC1,,"inconclusive: 29.1 µM [inhibitor, single point]"
Cc1ccc2oc(C(=O)NCCC3CCCCO3)c(C)c2c1 (stereo not drawn),,"inconclusive: 20.6 µM [inhibitor, single point]"
C=CCn1c(SCC#N)nc2cc(Cl)ccc2c1=O,,"inconclusive: 22.4 µM [inhibitor, single point]"
NS(=O)(=O)c1ccc(F)c(C(=O)O)c1,inactive: 0.109%,
O=C(Nc1nccs1)[C@@H]1CC=C[C@@H]2CCN(Cc3ccccc3)C(=O)[C@@H]21,,"inactive and inconclusive: 35.5 µM [inhibitor, single point]"
Cc1cccc(C(=O)N/C(=C\c2ccco2)C(=O)N2CCCC2)c1,inactive: -2.53%,
CC(C)[C@H](N)C(=O)N[C@H]1CCC2C3CC=C4C[C@@H](O)CC[C@]4(C)C3CC[C@@]21C (stereo partly drawn),,"inconclusive: 23.1 µM [inhibitor, single point]"
